Measured values: publication PMC3442408 (Molecular Biology of the Cell, 2012)

Target: HA-cbl (UniProt P22681 1-906)
Assay: co-IP

B1: FLAG-CIN85-4F (CIN85-Y10/109/271/278F) (natural protein)
chain: not shown
- reduction of binding relative to CIN85wt: ~80%
